Experimental data: the RNAGym collection of RNA variant scans (doi:10.7554/elife.90254)
The source gives no read counts; variants with many changes may rest on few reads.

B1: LINE1-full (parent)
chain: UACGUAGGUGGUUUUCCCCUGAUAGUGCUAAGGGGGCCUGGAAGUUUGGACUGGGCAGAGCUCAACACAGCGUGGCAAAGUGGCUGUGGCUAGACUGCCUCUCUGGAUUCCUCGUCACUCAGCAGGGCAUCUCUGAGAGAAAUGCC

Variants of: B1
Assay: self-cleavage, relative activity (ratio to wild type); higher = more cleavage; in vitro, sequencing; the parent is a self-cleaving ribozyme

| Variant | self-cleavage |
| --- | --- |
| UACGUAGGUGGUUUUCCCCUGAUAGUGCUAAAGGGGCCUGGAAGUUCGGACUGGGCAGAGCUCAACACAGCGUGGCAAAGUGGCUGUGGCUAGACUGCCUCUCUGGAUUCCUCGUCACUCAGCAGGGCACCUCUGAGAGAAAUGCC [G32A U47C U130C] | 1.67 |
| UGCGUAGGUGGUUUUCCCCUGAUAGUGCUAAGGGGGCCUGGAAGUUUGGACUGGGCAGAGCUCAACACAGCGUGGCAAAGUGGCUGUGGCUAGACCGCCACUCUGGAUUCCUCGUCACUCAGCAGGGCAUCUCUGAGAGGAAUGCC [A2G U96C U100A A140G] | 0.3 |
| UACGUAGGUGGUUUUCCCCUGAUAGUGCUAAGGGGGCCUGGAAGUUUGGACUGGGCAGAGCUCAACACAGCGUGGCAAAGUGGCUGGGGCAAGACUGCCUCUCUGGAUUCCUCGUCACUCAGCAGGGCACCUCUGAGAGAAAUGCC [U87G U91A U130C] | 0 |
| UACGUAGGUGGUUUUCCCCUGAUAGUGCUAAGGGGGCCUGGAAGUUUGGACUGGGCAGAGCUCAACACAGCGUGGCAAAGUGGCUGUGGCUAGACUGCCUCUCUGGAUUCCUCGUCACUCUGCAGGGCGUCUCUGAGAGGAAUGCC [A121U A129G A140G] | 1.48 |
| UACGUAGGUGGUUUUCCCCUGGUAGUGCUAAGGGGGCCUGGAAGUUUGGACUGGGCAGAGCUCAACACAGCGUGGCAAAGUGGCUGUGGCUAGACUGCCUCUCUGGAUUCCUCGUCACUCAGCAGGGCAUCUCUGAGAGAACCGCC [A22G A142C U143C] | 1.59 |
| UACGUAGGUGGGUUUCCCCUGACAGUGCUAAGGGGGCCUGGAAGUUUGGACUGGGCAGAGCUCAACACAGCGUGGCAAAGUGGCUGUGGCUAGACUGCCUCUCUGGAUUCCUCGUCACUCAGCAGGGCAUCACUGAGAGAAAUGCC [U12G U23C U132A] | 0 |
| UACGUAGGUGGUUUUCCCCUGAUAGUGCUAAGGGUGCCUAGAAGUUUGGACUGGGCAGAGCUCAACACAGCGUGGCAAAGUGGCUGUGGCUAGACUGCCUCUCUAGAUUCCUCGUCACUCAGCAGGGCAUCCCUGAGAGAAAUGCC [G35U G40A G105A U132C] | 1.55 |
| UACGUAGGUGGUUUUCCCCUGAUAGUGCUAAGGGGGCCUGGAAGUUUGGACUGGGCAGAGCUCAACACAGCGUGGCGAAGUGGCUGUGGCCAGACUGCCUCUCUGGAUUCCUCGUCACCCAGCAGGGCAUCUCUGAGAGAAAUGCC [A77G U91C U119C] | 2.16 |
| UACGUAGGUGGUUUUCCCCUGAUUGUGCUAAGGGGGCCUGGAAGUUUGGACUGGGCAUAGCUCAACACAGCGUGGCAAAGAGGCUGUGGCUAGACUGCCUCUCUGGAUUCCUUGUCACUCAGCAGGGCAUCUCUGAGAGAAAUGCC [A24U G58U U81A C113U] | 0.06 |
| UACGUAGGUGGUUUUCCCCUGAUAGUGCUAAGGGGGCCUGGAAGUUUGGACUGGGCAGAGCUCAACACAGCGUGGCAAAGUGGCUGUGGCAAGACUGCCUCUCUGGAUUCCUCGUCACUCAGCAGGGCACCUCUGAGAGAGAUGCC [U91A U130C A141G] | 0.18 |
| UACGUAGGCGGUUUUCCCCUGAUAGCGCUAAGGGGGCCCGGAAGUUUGGACUGGGCAGAGCUCAACACAGCGUGGCAAAGUGGCUGUGGUUAGACUGCCUCUCUGGAUUCCUCGUCACUCAGCAGGGCAUCUCUGAGAGAAAUGCC [U9C U26C U39C C90U] | 0.06 |
| UACGUAGGUGGUUUUCCCCUGAUAGUGCUAAGGGGGCCUGGAAGUUUGGACUGGGCAGAGCUCAACACAGCGUGGCAAAGUGGCUGUGGCUAGACUGCCUCUCUGGAUUCCUCGUCACACAGGAGGGCAUCUCUGAGAGGAAUGCC [U119A C123G A140G] | 0.66 |
| UACGUAGGUGGCUUUCCCCUGAUAGUGCUAAGGGGGCCUGGAAGCUUGGACUGGGCAGAGCCCAACACAGCGUGGCAAAGUGGCUGUGGCUAGUCUGCCUCUCUGGAUUCCUCGCCACUCAGUAGGGCAUCUCUGAGAGAAAUGCC [U12C U45C U62C A94U U115C C123U] | 0 |
| UACGUAGGUGGAUUUCCCCUGAUAGUGCUAAGGGGGCCUGGAAGUUUGGACUGGGCAGAGCUCAACACAGCGUGGCAAAGUGGCUGUGGCUAGACGGCUUCUCUGGAUUCCUCGUCACUCAGCAGGGCAUCUCUGAGAGAAAUGCA [U12A U96G C99U C146A] | 0.09 |
| UACGUAGGUGGUUUUCCCCUGAUAGUGCUAAGGGGGCCUGGAAGUUUGGACUGGGCAGGGCUCAACACAGCGUGGCAAAGUGACUGUGGCUAGACUGCCUCUCUGGAUUCCUCGUCACUCAGCAGGGCAUCUCUGAGAGAAAUGCU [A59G G83A C146U] | 0.1 |
| UACGUAGGUGGUUUUCCCCUGAUAGUGCUAAGGGGGCCUGGAAGUUUGGACUGGGCAGAGCUCAACACAGCGUGGCUAAGUGGCUGUGGCUAGACUGCCUCUCUGGGUUCCUCGUCACUCAGCAGGGCAUCUCUGAGAGAGAUGCC [A77U A107G A141G] | 1.02 |
| UACGUAGGCGGUUUUCCCCUGAUAGUGCUAAGGGGGCCUGGAAGUUUGGACUGGGCAGAGCUCAACACAGCGUGGCAAAGUGGCUGUGGCUAGACUGCCUCUCUGGAUUCCUCGUCACUCAGCAGGGCAUCUCAGAGAGAUAUGCC [U9C U134A A141U] | 0.75 |
| UUCGUAGGUGGUUUUCCCCUGAUAGUGCUAAGGGGGCCUGGAAGUUUGGACUGGGCAGAUCUCAACACAGCGUGGCAAAGUGGCUGUGGCUAGACUGCCUCUCUGGAUCCCUCGUCACUCAGCGGGGCUUCUCUGAGAGAAGUGCC [A2U G60U U109C A124G A129U A142G] | 0.04 |
| UACGUAGGUGGCUUUCCCCUGAUGGUGCUAAGGGGGCCUGGAAGUUUGGACUGGGCAGAGCACAACACGGCGUGGCAAAGUGGCUGUGGCUAGACUGCCUCUCUGGAUUCCUCGUCACUCGGCAGGGCAUCUCUGAGAGAAAUGCC [U12C A24G U62A A69G A121G] | 0 |
| UACGUAGGUGGUUUCCCCCUGGUAGUGCUAAGGAGGCCUGGAAGUUUGGACUGGGCAGAGCUCAACACAGCGUGGCAAAGUGGCUGUGGCUAGACUGCCUCUCUGGAUUCCUCGUCACUCAGCAGGGCAUCUCUGAGAGAAAUGCC [U15C A22G G34A] | 0.35 |

| Variant | self-cleavage |
| --- | --- |
| UACGUAGGUGGUUUUCCCCUGAUAGUGCUAAGGGGGCCUGGAAGUUUGGACUGGGCAGAGCUCAACACAGCGUGGCGAAGUGGCUGUGGCUAGACUGCCUCUCUGGAUUCCCCGUCACUCAGUAGGGCAUCUCUGAGAGAAAUGCC [A77G U112C C123U] | 2.31 |
| UACGUAGGUGGUUUUCCCCUGGUAGCGCUAAGGGGGCCUGGAAGUUUGGACUGGGCAGAGCUCAACACAGCGUGGCAAAGUGGCUGUGGCUAGACUGCCUCUCGGGAUUCCUCGUCACUCAGCAGGGCAUCUCUGAGAGAAAAGCC [A22G U26C U104G U143A] | 0.98 |
| UACGUAGGUGGUUUUCCCCUGAUAGAGCUAAGGGGGCCUGGAAGUUUGGACUGGGCAGAGCUCAACACAGCGUGGCAAAGCGGCUGUGGCUAGACUGCCUCUCUGGAUUCCUCGUCACUCAGCAGGGCAACUCUGAGAGAAAUGCC [U26A U81C U130A] | 0.51 |
| UACGUAGGUGGUUUUCCCCUGAUAGUGCUAAGGGGGCCAGGAAGUUUGGACUGGGCAGAGCUCAACACAGCGUGGCAAAGUGGCUGAGGCUAGACUGCCUCUCUGGAUUCCCCGUCACUCAGCAGGGCAUCCCUGAGAGAAAUGCC [U39A U87A U112C U132C] | 0.06 |
| UACGUAGGCGGUAUUCCCCUGAUAGCGCUAAGGGGGCCUGGAAGUUCGGACUGAGCAGAGCUCAACACAGCGUGGCAAAGUGGCCGUGGCUAGACUGCCUCUCUGGAUUCCUCGUCACUCAGCAGGGCAUCUCUGAGAGAAAUGCC [U9C U13A U26C U47C G54A U85C] | 0.06 |
| UACGUAGGUGGUUUUCCCCUGAUAGUGCUAAGGGGGCCUGGAAGUUUGGACCGGGCAGAGCUCAACACAGUGUGGCAAAGUGGCUGUGGCUAGACUGCCUCUCUGGAUUCCUCGUCACUCAGCAGGGCAUCUCCGAGAGAAAUGCC [U52C C71U U134C] | 0.79 |
| UACGAAGGUGGUUCUCCCCUGAUAGUGCUAAGGGGGCCUGGAAGUUUGGACUGGGCAGAGUUCAACACAGCGUGGCAAAGUGGCUGUGGCUAGACUGCCUCUCUGGAAUCCUCGUCGCUCAGCAGGGCAUCUCUGAGAGAAAUGCC [U5A U14C C61U U108A A117G] | 0.1 |
| UACGUAGGUGGUUUUCCCCUGAUAGUGCUAAGAGGGCCUGGAAGUUUGGACUGGGCAGAGCCCAACACAGCGUGGCAAAGUGGCUGUGGCUAGACUGCCUCUCUGGAUUCCUCGUCACUCAGCAGGGCAUCUCCGAGGGAAAUGCC [G33A U62C U134C A138G] | 0.01 |
| UACGUAGGUGGUUUUCCCCUGAUAGUGCUAAGGGGGCCUGGAAGUUUGGACUGGGCAGAGCCCAACACAGCGUGGCAAAGUGGCUGUGGCUAGACAGCCUCUCUGGAUUCCUCGUCACUCAGCAGGGCAUCUCUGGGAGAAAUGCC [U62C U96A A136G] | 0.02 |
| UACGUAGGAGGUUUUCCCCUGAUAGUGCUAAGGGGGCCUGGAAGUUUGGACUGGGCAGAGCUCGACACAGCGUGGCAAAGUGGCUGUGGCUAGACUGCCUCUCUGGAUUCCUCGUCACUCGGCAGGGCAUCUCUGAGAGAAAUGCC [U9A A64G A121G] | 0 |
| UACGUAGGUGGUUUUCCCCUGAUAGUGCUAAGGGGGCCUGGAAGCUUGGACUGGGCAGAGCUCAACACAGCGUGCCAUAGUGGCUGUGGCUAGACUGCCUCUCUGGAUUCCUCGUCACUCAGCAGGGCAUCUCUGAGAGAGAUGCC [U45C G75C A78U A141G] | 1.67 |
| UACGUGAGUGGUUUCCCCCUGAUAGUGCUAAGGGGGCCUGGAAGCUUGGACUGGGCAGAGCUCAACACAGCGUGGCAAGGUGGCUGUGGCUAGACUGCCUCUCUGGAUUCCUCGUCACUCAGCAGGGCAUCUCUGAGAGGAAUGCC [A6G G7A U15C U45C A79G A140G] | 1.15 |
| UACGUAGGUGGUUUUCCCCCGAUAGCGCUAAGGGGGCCUGGAAGUUUGGACUGAGAAGAGCUCAACACAGCGUGGCAAAGUGGCUGUGGCUAGACAGCCUCUCUGGAUUCCUCGUCACUCAGCAGGGCAUCUCUGAGAGAAAUGCC [U20C U26C G54A C56A U96A] | 0.02 |
| UACGUAGGAGGUUUUCCCCUGAUAGUGCUAAGGGGGCCCGGAAGUUUGGACUGGGCAGGGCUCAACACAGCGUGGCAAAGUGGCUGUGGCUAGACUGCCUCUCUGGGUUCCUCGUCACUCAGCAGGGCAUCUCUGAGAGAAAUGCC [U9A U39C A59G A107G] | 0 |
| UACGUAGGUGGUUUUCCCCUGAUAGAGCUAAGGGGGCCUGGAAGUUUGGACUGGGCAGAGCUCAACACAGCGUGGCAAAGUGGCAGUGGCUAGACUGCCUCUCUGGAUUCCUCGUCACACAGCAGGGCAUCUCUGAGAGAAAUGCC [U26A U85A U119A] | 0 |
| CACGUAGGUGGUUUCCCCCUGAUAGCGCUAAGGGGGCCUGGAAGUUUGGACUGGGCAGAGCUCAACACAGCGUGGCAAAGUGGCUGUGGCUAGACUGCCUCUCUGGAUUCCUCGCCACCCAGCAGGGCAUCUCUGAGAGAAAUGCC [U1C U15C U26C U115C U119C] | 0 |
| UACGUAGGUGGUUUUCCCCUGAUAGUGCUAUGGGGGCCUGGAAGUUUGGACUGGGCAGAGCUCAACACAGCGUGGCAUAGUGGCUGUGGCUAGACCGCCUCUCUGGAUUCCUCGUCGCUCAGCAGGGCAUCUCUGAGAGAAAUGCC [A31U A78U U96C A117G] | 0 |
| UACGUAGGUGGUUUUCCCCUGAUAGUGCUAAGGGGGCCUGGAAGUUUGGACUGGGCAGAGCUCAACACAGCGUGGCAAAGUGGCUGUGACUAGACUGCCUCCCUGGAUUCCUCGUCACCCAGCAGGGCAUCUCUGAGAGAAAUGCC [G89A U102C U119C] | 0.03 |
| UACGUAGGUGGUUUCCCCCUGAUAGUGCUAAGGGGGCCUGGAAGUUUGGGCUGGGCAGAGCUCAACACAGCGUGGCAAAGUGGCUGUGGCUAGACUGCCUCUCUGGAUUCCUCGUCACUCAGCAGGGCGUCUCUGAGAGAAAUGCC [U15C A50G A129G] | 0.61 |
